# Out of some 50,000 compounds screened, about 800 (1.6%) showed an effect of 50% or more. The list shows a part of the results.
# Target: Bcl-2-like protein 10 (Homo sapiens) (UniProt Q9HD36)
# Assay: Phenotype converters, Bcl-B/TR3 peptide binding displacement, primary biochemical FP (AID 1240);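 note: 0% = Bcl-B with tracer peptide and DMSO and 100% = tracer peptide lacking Bcl-B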
# Settings: GST-Bcl-B / FITC-TR3 peptide fluorescence polarization; stronger effect = higher value; compound at 3.75 mg/L
# Chain of UniProt Q9HD36 (Q9HD36 whole entry, looked up): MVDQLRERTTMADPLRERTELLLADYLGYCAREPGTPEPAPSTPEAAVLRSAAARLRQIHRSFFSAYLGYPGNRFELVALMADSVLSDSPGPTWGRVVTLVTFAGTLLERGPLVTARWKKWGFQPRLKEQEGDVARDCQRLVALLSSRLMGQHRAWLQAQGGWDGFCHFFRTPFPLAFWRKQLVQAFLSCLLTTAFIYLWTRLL
row,Structure (SMILES),displacement
1,O=c1/c(=C/c2cc([N+](=O)[O-])c(N3CCOCC3)cc2N2CCOCC2)sc2nc3ccccc3n12,6.7%
2,COc1ccc(-c2nc3c(n2O)CCc2c-3no[n+]2[O-])cc1,-10%
3,COc1cc(NC(=O)c2cc3nc(-c4ccco4)cc(C(F)(F)F)n3n2)cc([N+](=O)[O-])c1,3.5%
4,CN(C)c1ccc(NC(=O)C2C3C=CC(C3)C2C(=O)O)cc1 (stereo not drawn),33.6%
5,COc1cc(C(=O)N2CCN(Cc3ccncc3)CC2)cc(OC)c1OC,-17.2%
6,CC1(C)CC(=O)c2c(oc3ccc(NS(=O)(=O)c4ccc(Cl)cc4)cc23)C1,2%
7,CCOc1ccc(C(=O)Nc2cccc(-c3nc4cc(C)ccc4o3)c2C)cc1,17.4%
8,CCC(C(=O)NCc1ccc(F)cc1)c1ccccc1 (stereo not drawn),-1.6%
9,CCc1ccccc1NC(=O)CN(c1cccc(OC)c1)S(=O)(=O)c1ccccc1,6.4%
10,Nc1nnc(COc2ccc(Cl)cc2Cl)s1,2.4%
11,COc1ccc(/C=C2/SC(=S)N(c3cccc(C(F)(F)F)c3)C2=O)cc1,7%
12,COC(=O)c1c(NC(=O)c2c(F)cccc2F)sc2c1CCC(C(C)(C)C)C2 (stereo not drawn),0.7%
13,CCOc1cc(/C=C2\SC(=S)N(CCOC)C2=O)ccc1O,89.2%
14,CCOC(=O)c1cnc(Sc2ccc([N+](=O)[O-])cc2[N+](=O)[O-])nc1N,5.6%
15,Oc1ccc2ccccc2c1CN(Cc1ccccc1)Cc1ccccc1,-7.4%
16,COc1ccc(Br)cc1CN1CCN(Cc2ccccn2)CC1,-17.5%
17,COc1ccc2c(c1)CCC/C2=N\NC(=O)CN(c1ccccc1)S(=O)(=O)c1ccccc1,0.9%
18,CCN(CC)C(=O)c1sc(NC(=O)c2ccc(C(C)(C)C)cc2)c(C(=O)OC(C)C)c1C,-6%
19,O=C(NCc1ccco1)c1cc2n(n1)C(C(F)(F)F)CC(c1ccc(Cl)cc1)N2 (stereo not drawn),7.2%
20,Oc1[nH]c2ccccc2c1N=Nc1nc(-c2ccccc2)c2cc(Br)ccc2n1,-2%
21,C=C(C)COc1ccc2oc(C)c(C(=O)OC)c2c1,7.6%
22,CC(Nc1cc(N2CCN(CCO)CC2)ccc1[N+](=O)[O-])c1ccc(Br)cc1 (stereo not drawn),12.1%
23,O=C(Cn1cc(/C=C2\NC(=S)NC2=O)c2ccccc21)Nc1ccccc1,-41.9%

row,Structure (SMILES),displacement
1,O=c1oc2cc(OCc3c(F)c(F)c(F)c(F)c3F)ccc2cc1-c1ccc2ccccc2n1,-49.7%
2,Cn1c(=O)c2c(nc(SCC(=O)Nc3ccc(F)cc3)n2C)n(C)c1=O,9.2%
3,CC(=O)N(c1ccccc1)c1c(F)c(F)c(F)c(F)c1F,-8.8%
4,CC(=O)Oc1cccc(N2C(=O)C3C4C=CC(CC4)C3C2=O)c1 (stereo not drawn),-8.5%
5,CCOC(=O)Cc1nnc(Nc2ccc(C)cc2)c2ccccc12,11.4%
6,CCOC(=O)c1c(NC(=O)C(C)N2C(=O)c3ccccc3C2=O)sc2c1CCC(C)C2 (stereo not drawn),2.5%
7,O=P(CCN1CCOC1c1cccnc1)(c1ccccc1)c1ccccc1 (stereo not drawn),-8.2%
8,CCOC(=O)c1c(NC(=S)Nc2ccc(OC)cc2)sc2c1CCCCC2,-1%
9,CCc1ccc(NC(=O)c2ccc(C)c([N+](=O)[O-])c2)cc1,8.9%
10,CCOC(=O)C1=C(O)/C(=C/c2ccc(OCC)cc2)SC1=Nc1ccc([N+](=O)[O-])cc1,122%
11,CCOC(=O)c1ccc(N=CC2=C(O)c3ccccc3C2=O)cc1,-6%
12,COC(=O)COc1ccc(/C=C2/C(=O)N(c3ccccc3)N=C2C)cc1,6.5%
13,N#C/C(=C\c1ccc(C(=O)O)cc1)C(=O)NCC1CCCO1 (stereo not drawn),0%
14,C=CCNC(=O)/C(=C/c1cn(-c2ccccc2)nc1-c1cccc([N+](=O)[O-])c1)NC(=O)c1ccccc1,11.3%
15,COc1ccc(C(=O)/C=C/c2ccc(-c3ccc([N+](=O)[O-])cc3)o2)cc1,133%
16,CCOC(=O)c1sc(NC(=O)c2ccc(C(C)C)cc2)nc1C,-4%
17,Cc1ccc(NC(=O)CN2C(=O)c3ccccc3C2=O)c(C(=O)O)c1,-3.3%
18,CN1CCN(C(=O)c2ccc3c(c2)OCCO3)CC1,-7.1%
19,O=C1NC(c2ccc(Cl)cc2Cl)Nc2c1sc(=S)n2-c1ccccc1 (stereo not drawn),-17.4%
20,Cc1cc(C)nc(SCC(=O)OCC(=O)Nc2nnc(C)s2)n1,-27.8%
21,COCCN1C(=O)/C(=C\c2cccc(Cl)c2)C(C(=O)OC)=C1C,-5.5%
22,CC(/C=N\NC(=O)c1cc(C(C)(C)C)[nH]n1)=C\c1ccccc1,-7.4%
23,COC1=CC(CC(=O)c2ccc(OC)cc2)C(C(=O)c2ccccc2Cl)C=C1OC (stereo not drawn),-11%

row,Structure (SMILES),displacement
1,CS(=O)(=O)N1CCN(Cc2ccc(Cl)cc2)CC1,12.2%
2,Cc1c(NC(=O)c2cccc(I)c2)cccc1-c1nc2ccccc2o1,11.6%
3,COc1ccc(OC)c(/C=C/C(=O)c2ccc(Br)cc2)c1,9%
4,Cc1cccc(C)c1OCCCCNCCO,0.1%
5,CC12CC3CC(C1)CC(CNC(=S)Nc1ccccc1)(C3)C2,11.3%
6,O=c1nc(/C=C/c2cc3c(cc2[N+](=O)[O-])OCO3)cc(C(F)(F)F)[nH]1,30.4%
7,Cc1c(C(=O)OC(C)C)sc(NC(=O)c2ccccc2F)c1C#N,-6.8%
8,COc1ccc(OCCn2cc(C=O)c3ccccc32)cc1,13.5%
9,Cc1cccc(OCCOc2ccc(Cl)cc2/C=C2/SC(=S)N(C)C2=O)c1,6.5%
10,S=C(NCc1ccccc1)NC1CC2CCC1C2 (stereo not drawn),7.1%
11,CC1=NN(c2nc(-c3ccc(Cl)cc3)cs2)C(=O)/C1=C\c1ccc2c(c1)OCO2,17.1%
12,O=C(N/N=C/c1ccc(-c2ccccc2[N+](=O)[O-])o1)c1ccc2ccccc2c1O,13.3%
13,Oc1ccc(N=Nc2ccc(Cl)cc2)c2cccnc12,3%
14,CN(C)c1ccc(C(=O)N2CCN(c3ccccc3)CC2)cc1,9.2%
15,O=C(CN1CCN(C(c2ccccc2)c2ccccc2)CC1)CN1C(=O)c2ccccc2C1=O,-6.8%
16,Cc1ccc(/C=C2\CCC/C(=C\c3ccc(C)o3)C2=O)o1,15.2%
17,CCOc1ccccc1NC(=S)NCc1ccccc1,3.9%
18,CCOc1c(C=C(C#N)C#N)c2ccccc2n1CC,0.4%
19,Cc1ccc(CN2CCN(S(C)(=O)=O)CC2)cc1,13.2%
20,CC(=O)Nc1ccc(S(=O)(=O)Nc2ncccn2)cc1,-5.5%
21,CC(C)Cn1nc(-c2ccccc2)c2ccccc2c1=O,-4.1%
22,CC(=O)C(=Nc1ccccc1Cl)NNc1cccc(Cl)c1C,12.6%

# Reference: PubChem BioAssay AID1240 (Sanford-Burnham Center for Chemical Genomics, 2008)
